This is an account of results in paper PMC9911399, “Two distinct binding modes provide the RNA-binding protein RbFox with extraordinary sequence specificity”.

T1: RBFOX1 RRM RbFoxmut (Fox-RRM*) (Homo sapiens, UniProt Q9NWB1 109-208, R118D;E147R;N151S;E152T)
T1 sequence: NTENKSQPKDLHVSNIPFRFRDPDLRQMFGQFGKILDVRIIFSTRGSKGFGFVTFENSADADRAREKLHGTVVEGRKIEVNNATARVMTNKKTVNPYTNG

B1: GUCUACA (DNA:RNA)
RNA: GGGAGACCGGAAUUCAGAUUGUCCGUCUACAUUAAAUCCCGUCGUAGCCACCA
DNA 1: CAATCTGAATTCCGGTCTCCC
DNA 2: TGGTGGCTACGACGGGATT
B2: CAAAUUC (DNA:RNA)
RNA: GGGAGACCGGAAUUCAGAUUGUCCCAAAUUCUUAAAUCCCGUCGUAGCCACCA
DNA 1: CAATCTGAATTCCGGTCTCCC
DNA 2: TGGTGGCTACGACGGGATT
B3: CAUAACC (DNA:RNA)
RNA: B2 RNA with A27U, U29A, U30C
DNA 1: CAATCTGAATTCCGGTCTCCC
DNA 2: TGGTGGCTACGACGGGATT
B4: CCAUCUU (DNA:RNA)
RNA: B2 RNA with A26C, A28U, U29C, C31U
DNA 1: CAATCTGAATTCCGGTCTCCC
DNA 2: TGGTGGCTACGACGGGATT
B5: GAUGGGA (DNA:RNA)
RNA: B1 RNA with U26A, C27U, U28G, A29G, C30G
DNA 1: CAATCTGAATTCCGGTCTCCC
DNA 2: TGGTGGCTACGACGGGATT
B6: CACUUUG (DNA:RNA)
RNA: B2 RNA with A27C, A28U, C31G
DNA 1: CAATCTGAATTCCGGTCTCCC
DNA 2: TGGTGGCTACGACGGGATT
B7: GGGAUGA (DNA:RNA)
RNA: B2 RNA with C25G, A26G, A27G, U30G, C31A
DNA 1: CAATCTGAATTCCGGTCTCCC
DNA 2: TGGTGGCTACGACGGGATT
B8: AUUGCAC (DNA:RNA)
RNA: B2 RNA with C25A, A26U, A27U, A28G, U29C, U30A
DNA 1: CAATCTGAATTCCGGTCTCCC
DNA 2: TGGTGGCTACGACGGGATT
B9: CACUAAA (DNA:RNA)
RNA: B1 RNA with G25C, U26A, C30A
DNA 1: CAATCTGAATTCCGGTCTCCC
DNA 2: TGGTGGCTACGACGGGATT

Where a chain is given by its changes, count along the chain named. This is one part of the list.

In the assay the target is T1, RBFOX1 RRM RbFoxmut (Fox-RRM*). As to the kind of experiment: EMSA; HiTS-Eq, 1 nM pool, 10 min; buffer printed only for the single-RNA assays: 10 mM Tris pH 7.5, 150 mM NaCl, 3.4 mM EDTA, 0.001% NP-40, 30 C. Conditions: tags: His6 N-terminal (pET28a); label: 5' 32P. In short, it runs like this:
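A pool of RNA with 7 randomized nucleotides, 5′-radiolabelled and with DNA-annealed flanks, was equilibrated at 1 nM for 10 min in 50 µL with purified RbFox RRM, wild type or mutant, across increasing protein concentrations. Free RNA was separated by 8% native PAGE, excised, reverse-transcribed, barcoded by PCR and sequenced. Relative association constants were obtained from read-count changes of each RNA species versus the control reaction and normalised to the cognate motif.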
(A gel shift assay detects complexes by their altered migration in electrophoresis.)
As to B1, the binding signal is 0.0959 KA relative to UGCAUGU.
B2: the binding signal is 0.0761 KA relative to UGCAUGU.
For B3, the binding signal is 0.106 KA relative to UGCAUGU.
For B4 the value was 0.0865 KA relative to UGCAUGU.
In the case of B5, the binding signal was 0.104 KA relative to UGCAUGU.
To B6 belongs 0.135 KA relative to UGCAUGU.
Turning to B7, the binding signal is 0.267 KA relative to UGCAUGU.
Consider B8, for which the binding signal is 0.0917 KA relative to UGCAUGU.
For B9 the value was 0.103 KA relative to UGCAUGU.
